# Results as given in PubChem BioAssay (Tox21).
# “And” between values parts separate entries of the source, which are not always exact repeats. Equal values may be shown once. The inconclusive results got no clear call from the source; some entries with a clear call stand among them for comparison. For some assays here: Potencies of inconclusive entries are doubtful fits and often do not repeat. Some structures have more than one record in an assay (separate samples or runs), and their calls can disagree. The source made the active and inactive calls. Unless noted, the call rests on the fitted dose curve; in most records, active means well fitted curve in the direction sought with a large enough effect in the repeat runs; inconclusive means weak or mixed curves; inactive means no such curve, though single readings can be large; an effect the other way counts as inactive or inconclusive.
# Legend:
# [1] = qHTS assay for small molecule agonists of the p53 signaling pathway (AID 651631; calls by dose curve; further: nearly all actives have a fitted effect of over 15% in size; further: potency means the concentration at half of the fitted maximal effect); conditions: HCT-116 p53RE-bla reporter, beta-lactamase FRET ratio, 16 h; activation: at 73.3 µM (top of the series) unless noted
# In short: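 Beta-lactamase reporter activity under p53 response elements was quantified in HCT-116 cells by FRET fluorescence, following 16 h incubation with test compounds at 37 °C and 2 h substrate development at room temperature.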
# [2] = molecular target: Peroxisome proliferator-activated receptor gamma (Homo sapiens) (UniProt P37231); experiment: qHTS assay to identify small molecule agonists of the peroxisome proliferator-activated receptor gamma (PPARg) signaling pathway (AID 743094; active means well fitted activation curve with a large enough effect in the signal ratio in the repeat runs, not every such curve was filed as active; inconclusive means weak or mixed curves, or effect the other way; inactive means no such curve, though single readings can be large or run the other way; the % refers to the signal ratio; further: on the % scale 0 is the no-effect control and ±100 the full control effect); conditions: HEK293H PPARg-UAS-bla, beta-lactamase FRET ratio, 17 h; activation: at 57 µM (top of the series) unless noted
# Chain of UniProt P37231 (P37231 whole entry, looked up): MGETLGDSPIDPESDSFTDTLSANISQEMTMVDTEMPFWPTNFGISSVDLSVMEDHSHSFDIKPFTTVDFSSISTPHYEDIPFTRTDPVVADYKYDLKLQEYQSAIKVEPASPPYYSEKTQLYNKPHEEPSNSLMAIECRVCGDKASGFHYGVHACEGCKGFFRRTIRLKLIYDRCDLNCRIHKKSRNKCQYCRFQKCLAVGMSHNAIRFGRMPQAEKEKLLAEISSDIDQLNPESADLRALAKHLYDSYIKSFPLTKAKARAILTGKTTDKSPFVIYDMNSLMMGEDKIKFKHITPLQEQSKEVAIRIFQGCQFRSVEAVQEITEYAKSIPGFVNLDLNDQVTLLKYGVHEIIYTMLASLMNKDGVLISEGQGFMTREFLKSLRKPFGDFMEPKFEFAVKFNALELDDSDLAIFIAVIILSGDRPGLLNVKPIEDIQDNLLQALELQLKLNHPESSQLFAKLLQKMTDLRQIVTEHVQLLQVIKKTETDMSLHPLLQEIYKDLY
# In short: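 Compounds dissolved in DMSO were added to PPARg UAS-bla HEK293H cells for 17 h at 37C, and reporter expression was quantified by fluorescence intensity after 1 h with LiveBLAzer B/G FRET substrate.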
# [3] = molecular target: Peroxisome proliferator-activated receptor delta (Homo sapiens) (UniProt Q03181); experiment: qHTS assay to identify small molecule antagonists of the peroxisome proliferator-activated receptor delta (PPARd) signaling pathway (AID 743215; active means well fitted inhibition curve with a large enough effect in the signal ratio in the repeat runs, not every such curve was filed as active; inconclusive means weak or mixed curves, or effect the other way; inactive means no such curve, though single readings can be large or run the other way; the % refers to the signal ratio;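 further: cells stimulated with agonist L165041 at 300 nM final during compound exposure; on the % scale 0 is the no-effect control and ±100 the full control effect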); conditions: HEK293H PPARd-UAS-bla, beta-lactamase FRET ratio, antagonist, 17 h; ratio activity, negative = inhibition: at 62 µM (top of the series) unless noted
# Chain of UniProt Q03181 (Q03181 whole entry, looked up): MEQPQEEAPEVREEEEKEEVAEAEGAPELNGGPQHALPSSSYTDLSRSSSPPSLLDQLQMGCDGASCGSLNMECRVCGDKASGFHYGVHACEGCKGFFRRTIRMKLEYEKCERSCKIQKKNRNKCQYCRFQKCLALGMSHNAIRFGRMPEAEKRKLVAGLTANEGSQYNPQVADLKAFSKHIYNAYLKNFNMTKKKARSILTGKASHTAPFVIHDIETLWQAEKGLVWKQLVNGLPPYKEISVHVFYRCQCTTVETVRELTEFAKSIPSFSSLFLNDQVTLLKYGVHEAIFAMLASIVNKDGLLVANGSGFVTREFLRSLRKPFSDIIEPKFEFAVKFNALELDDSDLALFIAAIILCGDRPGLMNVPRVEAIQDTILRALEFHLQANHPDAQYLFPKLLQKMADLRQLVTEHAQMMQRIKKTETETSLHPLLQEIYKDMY
# In short: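 HEK293H UAS-bla, PPARd; agonist L165041 300 nM final with cpd in DMSO; 37 C 17 h; FRET substrate, RT 2 h; fluorescence intensity.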
# [4] = qHTS assay to identify small molecule antagonists of the vitamin D receptor (VDR) signaling pathway - cell viability counter screen (AID 743225); conditions: VDR-bla HEK293T viability, CellTiter-Glo luminescence, 16 h; viability change, negative = cytotoxic: at 61 µM (top of the series) unless noted; further: nearly all actives have a fitted effect of over 50% in size; further: potency means the concentration at half of the fitted maximal effect
# In short: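 Compounds were pinned onto VDR-bla HEK 293T cells together with 1-alpha,25-dihydroxyvitamin D3 at 3 nM final. After 16 h at 37C and 5% CO2 plus the reporter readout, cell viability was measured by CellTiter-Glo luminescence (30 min, room temperature).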
# [5] = qHTS RealTime-Glo MT Cell Viability Assay in HEK293 cells - 40 hour (AID 1224874); conditions: RealTime-Glo luminescence; max response: stronger effect = lower value; further: potency means the concentration at half of the fitted maximal effect; nearly all actives have a fitted effect of over 50% in size
# In short: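 Viable HEK293 cells reduce a cell-permeant prosubstrate; the product diffuses out and is consumed by NanoLuc in the medium to give light. Compounds went in after a 5 h incubation and plates were read over the treatment course.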
# [6] = molecular target: Estrogen receptor beta (Homo sapiens) (UniProt Q92731); experiment: qHTS assay to identify small molecule agonists of the estrogen receptor beta (ER-beta) signaling pathway (AID 1259377; active means well fitted activation curve with a large enough effect in the signal ratio in the repeat runs, not every such curve was filed as active; inconclusive means weak or mixed curves, or effect the other way; the % refers to the signal ratio; further: potency means the concentration at half of the fitted maximal effect); conditions: ER-beta-UAS-bla HEK293T, beta-lactamase FRET ratio, 16 h; activation: at 92.4 µM (top of the series) unless noted
# Chain of UniProt Q92731 (Q92731 whole entry, looked up): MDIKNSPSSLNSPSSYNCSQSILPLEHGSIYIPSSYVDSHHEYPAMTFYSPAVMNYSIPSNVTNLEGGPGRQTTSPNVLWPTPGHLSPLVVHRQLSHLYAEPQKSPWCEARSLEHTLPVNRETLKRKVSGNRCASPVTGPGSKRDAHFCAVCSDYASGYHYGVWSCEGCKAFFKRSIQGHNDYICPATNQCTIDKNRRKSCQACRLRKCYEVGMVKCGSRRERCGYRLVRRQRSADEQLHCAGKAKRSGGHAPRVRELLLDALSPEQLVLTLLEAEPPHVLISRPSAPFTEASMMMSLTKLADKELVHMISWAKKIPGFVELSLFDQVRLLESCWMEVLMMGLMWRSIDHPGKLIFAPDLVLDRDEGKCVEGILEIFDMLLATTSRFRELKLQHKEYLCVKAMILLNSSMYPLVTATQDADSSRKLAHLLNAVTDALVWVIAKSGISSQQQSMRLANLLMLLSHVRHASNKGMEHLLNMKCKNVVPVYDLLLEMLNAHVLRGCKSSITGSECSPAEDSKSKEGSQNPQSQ
# In short: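 Reporter cells (HEK293T, ER-beta-UAS-bla) receive compounds or DMSO after a 6 hr pre-incubation. They then incubate 16 hr at 37C/5% CO2, and fluorescence from LiveBLAzer B/G substrate is measured after 2 hours at room temperature.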
# [7] = molecular target: Estrogen receptor beta (Homo sapiens) (UniProt Q92731); experiment: qHTS assay to identify small molecule antagonists of the estrogen receptor beta (ER-beta) signaling pathway (AID 1259378; active means well fitted inhibition curve with a large enough effect in the signal ratio in the repeat runs, not every such curve was filed as active; inconclusive means weak or mixed curves, or effect the other way; inactive means no such curve, though single readings can be large or run the other way; the % refers to the signal ratio; further: potency means the concentration at half of the fitted maximal effect; on activity, negative = inhibition: on the % scale 0 is the no-effect control and ±100 the full control effect); conditions: ER-beta-UAS-bla HEK293T, beta-lactamase FRET ratio, 16 h; activity, negative = inhibition: at 92.4 µM (top of the series) unless noted
# In short: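 ER-beta-UAS-bla HEK293T cells in 2% charcoal-stripped FBS medium treated with compound plus 1nM final 17-beta-estradiol for 16 hr at 37C. Beta-lactamase reporter read by FRET substrate fluorescence after 2 hours at room temperature.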
# [8] = qHTS assay to identify small molecule agonists of the estrogen receptor beta (ER-beta) signaling pathway - cell viability counter screen (AID 1259380); further: nearly all actives have a fitted effect of over 30% in size; further: potency means the concentration at half of the fitted maximal effect
# In short: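 CellTiter-Glo read, 30 min RT, same wells as bla assay; cells ER-beta-UAS-bla HEK293T; 16 hr compound, 37C; medium 2% charcoal-stripped FBS.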
# [9] = qHTS assay for identifying genotoxic compounds that show differential cytotoxicity against isogenic chicken DT40 cell lines with known DNA damage response pathways - Rad54/Ku70 mutant cell line (AID 743015); conditions: DT40 Rad54/Ku70 mutant viability, CellTiter-Glo, 40 h; activity change, negative = cytotoxicity: at 66.8 µM (top of the series); further: potency means the concentration at half of the fitted maximal effect; nearly all actives have a fitted effect of over 60% in size
# [10] = qHTS assay to identify small molecule antagonists of the peroxisome proliferator-activated receptor gamma (PPARg) signaling pathway - cell viability counter screen (AID 743194); conditions: PPARg-bla HEK293H viability, CellTiter-Glo luminescence, 17 h; Potency: co-treated with 50 nM rosiglitazone unless noted; activity change, negative = cytotoxicity: at 62.6 µM (top of the series), co-treated with 50 nM rosiglitazone unless noted; further: nearly all actives have a fitted effect of over 55% in size; further: potency means the concentration at half of the fitted maximal effect
# In short: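 Cytotoxicity counter screen in PPARg-bla HEK293H cells, same wells as reporter assay. Compounds plus 50 nM rosiglitazone (final) for 17 h at 37 C, then viability read by CellTiter-Glo luminescence.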
# [11] = qHTS assay to identify small molecule agonists of the retinoic acid receptor (RAR) signaling pathway (AID 1159553); conditions: C3RL4 RARE luciferase reporter, agonist, 6 h; activation: at 73.3 µM (top of the series) unless noted; further: on the % scale 0 is the no-effect control and ±100 the full control effect
# In short: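 Reporter readout comes from luciferase under RARE control in C3RL4 cells; compound exposure lasts 6 hr at 37 C in 5% CO2, and luminescence is recorded following a 30 min room-temperature incubation with reagent.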
# [12] = qHTS assay to identify small molecule agonists of H2AX - cell viability counter screen (AID 1224847; calls by dose curve; further: nearly all actives have a fitted effect of over 30% in size; further: potency means the concentration at half of the fitted maximal effect)
# In short: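 Compounds tested at 15 concentrations were incubated 3 hr at 37C with wild-type CHO-K1 cells; cellular ATP-based luminescence (CellTiter-Glo) indicated viability.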
# [13] = qHTS assay to identify small molecule antagonists of the peroxisome proliferator-activated receptor delta (PPARd) signaling pathway - cell viability counter screen (AID 743213); conditions: PPARd-bla HEK293H viability, CellTiter-Glo luminescence, 17 h; viability change, negative = cytotoxic: at 62 µM (top of the series) unless noted; further: nearly all actives have a fitted effect of over 50% in size; further: potency means the concentration at half of the fitted maximal effect
# In short: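 Viability counter-screen, qHTS format: PPARd-bla HEK293H, L165041 300 nM final, 17 h compound exposure at 37 C, CellTiter-Glo luminescence after 30 min RT.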
# [14] = molecular target: Thyrotropin receptor (Homo sapiens) (UniProt P16473); experiment: qHTS assay to identify small molecule agonists of the thyroid stimulating hormone receptor (TSHR) signaling pathway (AID 1224843; calls by dose curve; further: on the % scale 0 is the no-effect control and ±100 the full control effect; nearly all actives have a fitted effect of over 45% in size); conditions: TSHR-HEK293 cells, cAMP HTRF, agonist mode, 30 min; activation: at 92.4 µM (top of the series) unless noted
# Chain of UniProt P16473 (P16473 whole entry, looked up): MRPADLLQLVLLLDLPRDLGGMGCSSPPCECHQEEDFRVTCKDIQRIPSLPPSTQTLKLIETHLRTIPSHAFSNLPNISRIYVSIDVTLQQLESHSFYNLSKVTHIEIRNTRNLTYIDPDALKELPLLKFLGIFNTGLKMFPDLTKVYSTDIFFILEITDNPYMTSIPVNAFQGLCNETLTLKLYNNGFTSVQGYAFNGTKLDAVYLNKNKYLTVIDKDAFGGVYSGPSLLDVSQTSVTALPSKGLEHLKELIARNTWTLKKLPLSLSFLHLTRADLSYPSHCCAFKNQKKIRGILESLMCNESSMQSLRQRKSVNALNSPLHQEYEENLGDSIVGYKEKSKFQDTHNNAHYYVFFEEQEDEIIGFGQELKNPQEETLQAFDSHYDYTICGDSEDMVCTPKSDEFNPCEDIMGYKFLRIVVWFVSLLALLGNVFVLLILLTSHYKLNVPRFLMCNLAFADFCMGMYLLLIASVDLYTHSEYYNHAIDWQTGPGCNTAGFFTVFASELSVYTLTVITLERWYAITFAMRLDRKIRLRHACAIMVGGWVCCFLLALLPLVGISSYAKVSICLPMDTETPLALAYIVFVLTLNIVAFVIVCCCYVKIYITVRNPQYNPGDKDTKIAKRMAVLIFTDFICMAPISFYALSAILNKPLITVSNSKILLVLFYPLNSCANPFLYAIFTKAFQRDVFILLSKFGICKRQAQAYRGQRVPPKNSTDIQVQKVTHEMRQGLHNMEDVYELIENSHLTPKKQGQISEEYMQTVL
# In short: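 TSHR-HEK293 cells in agonist mode, 30 min room-temperature step, then cAMP measured by competitive HTRF (cAMP-d2 with anti-cAMP cryptate) after 1 h at room temperature. Tested at 15 concentrations in triplicate.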
# [15] = qHTS assay to identify small molecule antagonists of the progesterone receptor (PR) signaling pathway - cell viability counter screen (AID 1346798); further: potency means the concentration at half of the fitted maximal effect; nearly all actives have a fitted effect of over 50% in size
# In short: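 In the same plates used for the beta-lactamase readout, cell viability of compound- and R5020-treated PR-UAS-bla HEK293T cells (16 hr, 37C) was assessed by CellTiter-Glo luminescence.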
# [16] = molecular target: Nuclear receptor subfamily 1 group I member 2 (Homo sapiens) (UniProt O75469); experiment: Human pregnane X receptor (PXR) small molecule agonists, qHTS assay (AID 1346982); further: nearly all actives have a fitted effect of over 35% in size; further: potency means the concentration at half of the fitted maximal effect
# Chain of UniProt O75469 (O75469 whole entry, looked up): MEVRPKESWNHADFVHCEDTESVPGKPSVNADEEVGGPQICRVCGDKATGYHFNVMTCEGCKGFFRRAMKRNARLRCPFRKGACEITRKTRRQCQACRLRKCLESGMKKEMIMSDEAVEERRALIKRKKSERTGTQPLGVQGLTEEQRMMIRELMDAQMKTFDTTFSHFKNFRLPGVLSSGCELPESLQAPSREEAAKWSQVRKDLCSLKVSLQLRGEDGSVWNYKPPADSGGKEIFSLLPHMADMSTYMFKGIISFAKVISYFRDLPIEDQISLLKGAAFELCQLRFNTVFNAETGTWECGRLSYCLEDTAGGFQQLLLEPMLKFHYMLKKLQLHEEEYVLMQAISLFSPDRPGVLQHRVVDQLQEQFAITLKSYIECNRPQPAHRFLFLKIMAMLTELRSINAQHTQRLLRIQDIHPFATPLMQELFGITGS
# In short: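 Compound-induced hPXR transactivation of a CYP3A4 luciferase reporter was scored in HepG2 PXR-Luc cells over 24 hr at 37 C, 5% CO2, by luminescence.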
# [17] = qHTS RealTime-Glo MT Cell Viability Assay in HEK293 cells - 32 hour (AID 1224868)
# In short: (§1)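 Tox21 10K qHTS, HEK293, 600 cells/well, RealTime-Glo reagent co-dispensed with cells; 5 h preincubation, compound by pintool, 37 C, luminescence at 0–40 h.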
# [18] = qHTS RealTime-Glo MT Cell Viability Assay in HEK293 cells - 16 hour (AID 1224872); further: nearly all actives have a fitted effect of over 50% in size; further: potency means the concentration at half of the fitted maximal effect
# In short: as §1
# [19] = qHTS assay to identify small molecule agonists of the estrogen receptor alpha (ER-alpha) signaling pathway in the presence of an antagonist - cell viability counter screen (AID 1259386);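 further: cells exposed to compounds for 22 h at 37 °C before the viability read; nearly all actives have a fitted effect of over 30% in size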; further: potency means the concentration at half of the fitted maximal effect
# In short: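 Viability counter screen using VM7Luc4E2 (full-length ER-alpha, four ERE-luciferase). The cells were treated with compounds alongside ICI-182,780 10.0nM for 22hr, and live-cell protease fluorescence was quantified with CellTiter-Fluor.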
# [20] = qHTS RealTime-Glo MT Cell Viability Assay in HEK293 cells - 24 hour (AID 1224886)
# In short: as §1
# Tags describe the fitted curve by direction and shape or compound fluorescence and quenching.
structure (smiles),measurement,setting,value
O=C(O)C(F)(F)C(F)(F)C(F)(F)C(F)(F)C(F)(F)C(F)(F)C(F)(F)C(F)(F)F,Potency,[1],"inconclusive: 68.6 µM [activator, single point]"
same,activation,[2],inconclusive: -1.75%
same,"ratio activity, negative = inhibition",[3],inconclusive: -41.2%
same,Potency,[4],"inconclusive: 61600 nM [cytotoxic, partial curve, poor fit]"
same,Potency,[5],"inconclusive: 3.47 µM [cytotoxic, partial curve, poor fit]"
same,Potency,[6],"inconclusive: 30.6 µM [rising, partial curve, poor fit]"
same,"activity, negative = inhibition",[7],inconclusive: -38.8%
same,Potency,[8],active: 12.2 µM
CC(C)N(Cc1ccccc1)C(=O)C(C)(C)C,Potency,[9],"inconclusive: 68.6 µM [cytotoxic, single point]"
same,Potency,[10],"inconclusive: 123 nM [rising, partial curve, poor fit]"
same,Potency,[11],inactive
same,Potency,[12],"inconclusive: 11.3 µM [cytotoxic, single point]"
same,Potency,[7],inactive
CCCN1CCC[C@@H]2Cc3[nH]ncc3C[C@H]21,Potency,[1],"inconclusive: 5.96 µM [falling, single point]"
same,"viability change, negative = cytotoxic",[13],inconclusive: 3.31% [cytotoxic]
same,Potency,[7],inactive
O=c1[nH]c(Cl)c(Cl)cc1Cl,Potency,[1],"inconclusive: 68.6 µM [activator, partial curve, poor fit]"
same,Potency,[2],inactive
same,Potency,[13],"inconclusive: 2.19 µM [cytotoxic, single point]"
same,Potency,[14],inactive
same,Potency,[6],"inconclusive: 13.7 µM [rising, full curve]"
same,Potency,[7],"inconclusive: 61.1 µM [rising, single point]"
same,Potency,[8],inconclusive: 48.6 µM [cytotoxic]
same,Potency,[15],"inconclusive: 27.3 µM [cytotoxic, single point]"
same,Potency,[16],"inconclusive: 24.3 µM [activator, full curve, poor fit]"
C=CCc1ccccc1O,Potency,[3],inactive
same,Potency,[17],"inconclusive: 0.436 µM [rising, full curve, poor fit]"
same,Potency,[18],"inconclusive: 8.71 µM [rising, partial curve, poor fit]"
C1CCC(C2CCCCC2)CC1,Potency,[9],active: 54.5 µM
same,Potency,[4],inconclusive: 1.5 nM [cytotoxic]
same,Potency,[17],"inconclusive: 61.6 µM [cytotoxic, partial curve, poor fit]"
same,Potency,[18],inactive
same,Potency,[5],"inconclusive: 54.9 µM [cytotoxic, single point]"
same,Potency,[8],active: 38.6 µM
same,Potency,[15],active: 15.4 µM
CCNc1nc(Cl)nc(NC(C)(C)C#N)n1,"ratio activity, negative = inhibition",[3],inconclusive: 3.21%
same,Potency,[19],inactive
same,Potency,[16],"inconclusive: 34.3 µM [activator, partial curve]"
c1ccc2c(c1)Oc1ccccc1O2,Potency,[1],inactive
same,Potency,[10],inactive
same,Potency,[13],"inconclusive: 1.93 µM [cytotoxic, single point] and inactive"
same,Potency,[16],"inactive and inconclusive: 61.1 µM [activator, partial curve]"
C[C@]12CC[C@H]3[C@@H](CCC4=CC(=O)CC[C@@H]43)[C@@H]1CC[C@@H]2OC(=O)CCc1ccccc1,Potency,[2],inactive
same,Potency,[3],inactive
same,Potency,[11],inactive
same,Potency,[12],inconclusive: 55.2 µM [cytotoxic]
same,Potency,[6],active: 3.35 µM
same,Potency,[7],"inconclusive: 7.5 µM [activator, full curve]"
ClC(Cl)(Cl)Br,Potency,[3],inactive
same,Potency,[12],inactive
Nc1c(Br)cc([N+](=O)[O-])cc1[N+](=O)[O-],Potency,[1],"inconclusive: 69.4 µM [falling, single point]"
same,Potency,[9],"inconclusive: 69.4 µM [cytotoxic, single point]"
same,Potency,[12],"inconclusive: 114 µM [cytotoxic, single point]"
same,Potency,[20],inactive
same,Potency,[8],"inconclusive: 61.8 µM [cytotoxic, single point]"
same,Potency,[19],active: 31 µM
same,Potency,[16],active: 55.1 µM
CNC(=O)O/N=C(\C)SC,Potency,[7],inactive
same,Potency,[8],"inconclusive: 21.7 µM [rising, partial curve, poor fit]"
ClC(Br)Br,Potency,[3],inactive
same,Potency,[4],inactive
same,Potency,[6],inactive
[N-]=[N+]=CC(=O)OC[C@H](N)C(=O)O,Potency,[1],"inconclusive: 1.68 µM [falling, partial curve, poor fit]"
CC(Oc1cccc(Cl)c1)C(=O)O (stereo unspecified),activation,[6],inconclusive: 8.12%
O=CC=O,activation,[6],inconclusive: 4.49%
OCCCl,Potency,[1],inactive
same,"ratio activity, negative = inhibition",[3],inconclusive: 11.3%
same,Potency,[8],inactive
same,Potency,[15],"inconclusive: 68.6 µM [rising, single point]"
[Cl-].[Cl-].[Cl-].[Yb+3],Potency,[4],"inconclusive: 549 nM [cytotoxic, full curve, poor fit]"
same,Potency,[8],"inconclusive: 6.86 µM [cytotoxic, full curve]"
